# Some of the results follow.
# Test system: T1, C. trachomatis L2/434/Bu expressing GFP (CTL2-GFP)
# T1 construct: L2/434/Bu GFP intracellular growth in HeLa cells
# Parameters: species or system HeLa; C. trachomatis total inclusion area by high-content imaging, normalised to DMSO
# Conditions: total inclusion area; 28.5 h, 10 µM; inhibitor
# Summary of the method: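 High-content images of fixed, Hoechst-stained infected cultures supply inclusion area and count (growth) plus nuclei number (viability), complementing bulk GFP/resorufin fluorescence. MIC determination is unchanged from the primary assay.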
row,SMILES,% of control remaining
1,Nc1ncc(-c2ccc3c(c2)OCO3)nc1N1CCC(C(=O)O)CC1 [CBK064074],124.023
2,CC(C(=O)N1CCOCC1)N(c1cc(Cl)ccc1Cl)S(C)(=O)=O (centres unmarked) [CBK270270],120.188
3,Cc1ccc(-c2nnc(CNC(=O)c3cccc(F)c3F)o2)s1 [CBK284641],102.2
4,CC(NC(=O)CCc1cccnc1)c1nc(-c2ccncc2)cs1 (centres unmarked) [CBK306243],85.7664
5,Cn1nccc1NS(=O)(=O)c1cccc2cccnc12 [CBK062069],97.8631
6,CCN(Cc1ccccc1)C(=O)Nc1ccc(C)cc1 [CBK155248],77.1381
7,Cc1cc(C)n(CC2(CNC(=O)C(c3ccccc3F)N(C)C)CC2)n1 (centres unmarked) [CBK306920],91.2712
8,O=C(NCCN1CCCCC1)c1cccc(Oc2ccccc2)c1 [CBK270335],52.0034
9,O=C(c1ccccc1Cl)N1N=C(c2cccnc2)CC1c1ccccc1O (centres unmarked) [CBK269182],129.796
10,Cc1cc(C(=O)CSc2nnnn2-c2ccc(O)cc2)c(C)n1Cc1ccc(F)cc1 [CBK297081],101.257
11,O=C(O)CCCn1cc(NC(=O)c2ccc(Br)o2)cn1 [CBK270042],96.4644
12,NCC1OCCc2ccccc21 (centres unmarked) [CBK027717],100.575
13,COc1ccc(N2C(=O)CSC23C(=O)Nc2ccc(Br)cc23)cc1 (centres unmarked) [CBK093454],88.3369
14,c1ccc(CCN2CCC(Oc3cncc(OCCN4CCOCC4)n3)C2)cc1 (centres unmarked) [CBK084497],112.094
15,COCCn1cnnc1CN(C)C(=O)NCc1cc2ccccc2s1 [CBK306911],60.7368
16,COC(C)(C(=O)Nc1ccc(Cl)nc1)c1cccc2ccccc12 (centres unmarked) [CBK091350],92.5421
17,CCCCC(Sc1nc(N)cc(Cl)n1)c1cc(C)ccn1 (centres unmarked) [CBK016827],61.0217
18,Cc1c(Cl)cccc1S(=O)(=O)Nc1c(C(=O)O)[nH]c2ccccc12 [CBK049889],88.452
19,N#Cc1ccc(NC(=O)NCCc2cccs2)cc1 [CBK043736],90.0918
20,Nc1nc2nn([C@H]3C[C@@H](O)[C@@H](CO)O3)cc2c(=O)[nH]1 [CBK201218],73.4487
21,O=C(c1cc2c(F)cccc2[nH]1)N(CCO)CCc1ccncc1 [CBK281644],99.7046
22,Cc1c(C(=O)N2CCC(CN)C2)nnn1-c1ccc2ncccc2c1 (centres unmarked) [CBK304734],81.8079
23,c1ccc(COc2ccc(N3CCNCC3)cc2)cc1 [CBK012776C],96.7843
24,Clc1cccc(-c2cncc(N3CCN(Cc4ccccn4)CC3)n2)c1 [CBK037282],117.688
25,COc1ccc(NC(=O)c2cc(-c3cccnc3)nc3c(C)c(C)ccc23)c(OC)c1 [CBK267746],118.301
26,O=C(NC1CC1)c1cc(C2CCCN(Cc3cccc(F)c3)C2)no1 (centres unmarked) [CBK284588],53.1293
27,CC(=O)N1CCC[C@H]2NC(=O)CNC(=O)C3(C/C=C/C[C@H]21)CCN(Cc1ccccc1O)CC3 [CBK292054],87.0316

row,SMILES,% of control remaining
1,O=C(c1ccc(F)cc1)[C@H]1CCCN(C(=O)C2CC2)C1 [CBK284326],68.0119
2,CN1C(=O)C(CCNc2ccccc2)S/C1=N/C1CC2C=CC1C2 (centres unmarked) [CBK073812],62.1966
3,CC(CCCc1ccccc1)NC(=O)c1cc2c([nH]c1=O)CCC2 (centres unmarked) [CBK281528],110.263
4,CCn1cc(CCC(=O)NC2CCCOC2)c2ccccc21 (centres unmarked) [CBK283256],113.682
5,Cc1ccc(CNC(=O)Cc2csc(N3CCCC3=O)n2)n1C [CBK305642],97.1723
6,Nc1nonc1NC(=O)N/N=C/c1ccc(C(F)(F)F)cc1 [CBK261813],80.1021
7,CCOC(=O)c1ccccc1NS(=O)(=O)c1ccc(C)c([N+](=O)[O-])c1 [CBK045451],100.225
8,COc1cc(CNC23CC4CC(CC(C4)C2)C3)c(Cl)cc1OCC(=O)O [CBK269567],93.063
9,CN1CCC(CN(C)Cc2ccc3cccc(Cl)c3n2)C1 (centres unmarked) [CBK282615],101.357
10,CC(=O)Nc1cc(S(N)(=O)=O)c(F)cc1C [CBK034356],13.6434
11,CCOc1ccc(/N=C2/SC(C(=O)O)CC(=O)N2Cc2ccc3c(c2)OCO3)cc1 (centres unmarked) [CBK263296],97.4357
12,Cc1cnn(C2(C(=O)O)CCN(C(=O)c3cccc(C#N)c3)CC2)c1 [CBK307058],75.0268
13,Fc1ccc2c(-c3ccccc3)noc2c1 [CBK025975],63.1339
14,O=C1NCC2(C/C=C/CCOc3ccccc31)CCN(C(=O)CCN1CCCC1=O)CC2 [CBK292016],120.593
15,O=C(NC1CCN(Cc2cc(F)cc(F)c2)CC1)c1cn2ccsc2n1 [CBK306970],89.4589
16,CC(C(=O)Nc1cccc2[nH]ccc12)c1ccc(Cl)cc1 (centres unmarked) [CBK159647],74.5492
17,N#CCCN(C(=O)Nc1ccc(Cl)cc1)C1CCCCC1 [CBK156365],90.1714
18,COc1ccc(S(=O)(=O)N2CCN(C(=O)COc3ccc4ccccc4c3)CC2)cc1 [CBK263371],91.892
19,CCn1cncc1CN1CC2CCCC(O)(c3ccc(C)cc3)C2C1 (centres unmarked) [CBK284374],95.2731
20,O=C(c1cccc2ncccc12)N1CC[C@@H](c2ccccc2)[C@H](O)C1 [CBK283716],66.5906
21,COc1ccc(NC(=O)C2CCCN2c2nc(O)cc(C(F)(F)F)n2)c(OC)c1 (centres unmarked) [CBK003951],98.7265
22,O=C(CCN1CCCCC1)Nc1ccc2c(=O)n3c(nc2c1)/C(=C/c1ccccc1)CC3 [CBK017786],1.845
23,CC(NC(=O)C1CCN(Cc2ncc[nH]2)CC1)c1ccc(F)cc1 (centres unmarked) [CBK148037],116.194
24,Cc1ccc(-n2c3nc(=O)[nH]c(=O)c-3cc3c(Cl)cccc32)c(C)c1 [CBK287965],74.011
25,CCCCN(C)c1nccnc1-c1ccc(CO)cc1 [CBK037666],96.1881
26,COc1ccc([C@@]23CC[C@@H](NC(=O)Nc4cccc(S(=O)(=O)C(F)(F)F)c4)C[C@@H]2N(C)CC3)cc1OC [CBK051275T],30.751
27,COc1ccc(CSc2nc3sc4c(c3c(=O)n2Cc2ccccc2)CCN(Cc2ccccc2)C4)cc1 [CBK263714],95.3426

row,SMILES,% of control remaining
1,CCSc1ccnc2c1c(=O)n(C)c(=O)n2C [CBK287749],93.3795
2,CCOC(=O)C(N)CSC1CC(=O)N(c2ccc(Br)cc2)C1=O (centres unmarked) [CBK017250C],7.126
3,O=c1ccc(-c2cccs2)nn1C[C@H]1CCCN1 [CBK284313],81.2259
4,CC(=O)NC1(c2ccc(F)cc2)CCN(C(=O)C2CCCCC2)CC1 [CBK283546],94.7394
5,CN1CCN(C(=O)c2ccc(-c3ccc(N4CCOCC4)cc3)nc2N(C)C)CC1 [CBK106114],114.412
6,COC(=O)c1ccsc1NS(=O)(=O)c1ccccc1 [CBK026667],91.2251
7,CNC(=O)CSc1nccnc1N1CCCC1 [CBK107748],84.612
8,O=C(O)CCCCN1C(=O)c2ccccc2S1(=O)=O [CBK287189],97.6112
9,COc1cccc(C2=CC(c3ccccc3Cl)N3N=NNC3=N2)c1 (centres unmarked) [CBK287943],107.849
10,COc1ccc(-c2nnc([C@H]3CCN(Cc4ccccn4)C3)o2)cc1 [CBK289401],107.364
11,CCCNC(=O)c1ccc(C)c(NC(=O)NC2CCOC2)c1 (centres unmarked) [CBK306794],78.4457
12,CC1(C)CC(NC(=O)C2CCCN(S(C)(=O)=O)C2)c2ccccc2O1 (centres unmarked) [CBK304365],61.1054
13,CC(=O)Nc1ccc(S(=O)(=O)Nc2ccnc(N3CCNCC3)n2)cc1 [CBK000363C],76.9498
14,c1cnc2[nH]c(C3CC3)c(CN3CCN4CCCCC4C3)c2c1 (centres unmarked) [CBK285313],85.3579
15,Cc1cc(C=O)c(C)n1-c1ccc(Oc2ccc([N+](=O)[O-])cn2)cc1 [CBK264167],91.8779
16,OCCn1ncc2c(NCc3cccnc3-n3cccn3)ncnc21 [CBK305977],80.7752
17,COCCNc1nc(-c2cc(C(C)C)ccc2OC)ccc1C(=O)NCCNC(C)=O [CBK105985],97.5751
18,NC(=O)c1nc(-c2ccccc2)nc2c1[nH]c(=O)n2-c1cccc(Cl)c1 [CBK287544],116.082
19,CSCC(=O)N1C[C@@H]2C[C@H](C1)c1c(-c3cncnc3)ccc(=O)n1C2 [CBK289195],130.375
20,CCCN1C(=S)N(CCO)C(=O)/C1=C/C=C1/Oc2ccccc2N1CCC(=O)O [CBK261400],90.3125
21,CCC12CN3CC(CC)(CN(C1)C3c1ccc([N+](=O)[O-])cc1)C2=O (centres unmarked) [CBK263689],100.254
22,COc1ccc([C@@]23CC[C@@H](NC(=O)Nc4ccc(Cl)c(F)c4)C[C@@H]2N(C(C)C)CC3)cc1OC [CBK056852T],83.4448
23,Cc1nc2n(n1)C(c1ccccn1)C1=C(CC(C)CC1=O)N2 (centres unmarked) [CBK288230],91.6455
24,COc1ccc(S(=O)(=O)Nc2ccc(C(=O)O)cc2)cc1[N+](=O)[O-] [CBK266130],105.583
25,CCCc1ccc(-c2nccn2CCn2cc(C)nn2)o1 [CBK307688],80.3546
26,Cc1cc(C(=O)CSc2nc3cc(Cl)cnc3[nH]2)c(C)n1C1CC1 [CBK305867],6.261

# Reference: PMC12040169 (PLOS Biology, 2025)
